The list shows a part of the results. These are further read-outs of the screen, such as a control signal, another cell line or another target. No call is given for them.

Holding throughout (test): Primary Screen for Target Class Profiling of Small Molecule Inhibitors of Methyltransferases
Test [1] deals with Glycine N-methyltransferase (Homo sapiens) (UniProt Q14749). To be noted: purified enzyme, MTase-Glo SAH luminescence; measured here: GNMT inhibition; at 40 µM; stronger effect = lower value. The essentials: (§1)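 Each enzyme was reacted with SAM and its substrate, with compounds tested once at 40 uM; SAH formed was read by MTase-Glo luminescence.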
Test [2] concerns the target Guanidinoacetate N-methyltransferase (Homo sapiens) (UniProt Q14353). To be noted: purified enzyme, MTase-Glo SAH luminescence; measured here: GAMT inhibition; at 40 µM; stronger effect = lower value. The essentials: as §1
Test [3] concerns the target Histamine N-methyltransferase (Homo sapiens) (UniProt P50135). As to conditions: purified enzyme, MTase-Glo SAH luminescence; measured here: HNMT inhibition; at 40 µM; stronger effect = lower value. The essentials:
as §1

The target of test [4] is Nicotinamide N-methyltransferase (Homo sapiens) (UniProt P40261). As to conditions: purified enzyme, MTase-Glo SAH luminescence; measured here: NNMT inhibition; at 40 µM; stronger effect = lower value. The essentials:
as §1

Test [5] deals with Phenylethanolamine N-methyltransferase (Homo sapiens) (UniProt P11086). As to conditions: purified enzyme, MTase-Glo SAH luminescence; measured here: PNMT inhibition; at 40 µM; stronger effect = lower value. The essentials:
as §1
% is set by controls: 0 for no effect and ±100 for the full control effect.

Take `C[C@H](O)c1onc(-c2ccc(F)cc2)c1C(=O)N1CCCC1`: the activity change, negative = inhibition in test [1] was -2.64%; in test [2], -3.7%; in test [3] it was 1.42%; in test [4], -8.78%; in test [5] it was -1.13%.

`CN1CCN([C@H]2CCN(Cc3cccs3)C[C@H]2CCC(=O)O)CC1`: the activity change, negative = inhibition is -5.3% in test [1]; -8.3% in test [2]; -1.93% in test [3]; -7.86% in test [4]; -4.39% in test [5].

Consider `CC(C)Cn1c(=O)c2ccc(C(=O)NC3CCCCC3)cc2n2c(=O)n(CC(=O)NC(C)C)nc12`, for which the activity change, negative = inhibition in test [1] was 11%; in test [2], 3.42%; in test [3], 12.6%; in test [4], 7.67%; in test [5] it was 7.17%.

For `CC(=O)N1CCCN(Cc2ccc3c(c2)OCO3)c2ccccc21`, the activity change, negative = inhibition in test [1] was -9.34%; in test [2] it was -11.7%; in test [3] it was -8.12%; in test [4], -20.5%; in test [5], -3.16%.

`COc1ccc(-c2cc3n(n2)CC(C)(C(=O)NCc2ccccc2OC)N(c2cccc(Cl)c2C)C3=O)cc1` (stereo not given): the activity change, negative = inhibition in test [1] was 4.54%; in test [2], 0%; in test [3], 2.05%; in test [4], 6.22%; in test [5], -0.999%.

In the case of `Cc1ccc(NC(=O)c2cc3n(n2)CC(C)(C(=O)NC2CCCCC2)N(C)C3=O)cc1Cl` (stereo not given), the activity change, negative = inhibition in test [1] is -1.26%; in test [2], 0.713%; in test [3], -0.499%; in test [4] it was -4.14%; in test [5] it was -1.71%.

As for `Cc1ccc(CNC(=O)c2cc3n(n2)CC(C)(C(=O)NCc2ccc(F)cc2)N(C)C3=O)cc1` (stereo not given), the activity change, negative = inhibition in test [1] is 6.29%; in test [2], 0%; in test [3] it was 2.25%; in test [4], 9.84%; in test [5], 2.68%.

Regarding `O=C(Nc1ccc(Oc2ccccc2)cc1)N[C@H]1CO[C@H]2[C@@H]1OC[C@@H]2n1nnnc1Oc1ccc(-n2cncn2)cc1`, the activity change, negative = inhibition in test [1] was -3.75%; in test [2], -4.27%; in test [3] it was -3.64%; in test [4] it was -6.27%; in test [5] it was -6.83%.

With `O=S(=O)(Nc1cccc(-c2ccc(N3CCOCC3)nn2)c1)c1cc(C(F)(F)F)ccc1Cl`, the activity change, negative = inhibition was -0.376% in test [2], -12.9% in test [4] and 2.83% in test [5].

Regarding `C[C@@H]1CN(c2c(F)c(F)c3c(=O)c(C(=O)O)cn(C4CC4)c3c2F)C[C@H](C)N1`, the activity change, negative = inhibition in test [1] was 1.58%; in test [2] it was -5.15%; in test [3], 9.69%; in test [4], -7.37%; in test [5], 5.37%.

`O=C(Cc1ccc2c(c1)OCO2)N1CCOCC2(CN(Cc3ccccc3)C2)C1`: the activity change, negative = inhibition was -8.34% in test [1]; -13.1% in test [2]; -8.39% in test [3]; -19.4% in test [4]; -11.7% in test [5].

As for `CCCCS(=N)(=O)CCC(N)C(=O)O` (stereo not given), the activity change, negative = inhibition in test [1] is -10.2%; in test [2], -2.25%; in test [3] it was -2.11%; in test [4], -12.4%; in test [5], -4.89%.

On to `CCOCCCNC(=O)C1(C)Cn2c(ccc2-c2ccco2)C(=O)N1c1ccc(OC)c(OC)c1` (stereo not given), for which the activity change, negative = inhibition was determined as 2.36% in test [1]; 0% in test [2]; 10.4% in test [3]; 13.8% in test [4]; 3.82% in test [5].

`CC(=O)O[C@H]1CC2(C)[C@@H](C[C@@H](O)[C@H]3[C@@]4(C)CC[C@@H](O)[C@@H](C)[C@@H]4CC[C@@]32C)C1=C(CCC=C(C)C)C(=O)O` (stereo not given in full): the activity change, negative = inhibition in test [1] was -4.37%; in test [2], 5.5%; in test [3] it was -0.924%; in test [4], -7.43%; in test [5] it was 2.05%.

In the case of `CCOc1cc(OCC)c2c(-c3ccccc3)cc(=O)oc2c1`, the activity change, negative = inhibition in test [1] was -50.5%; in test [2], -35.1%; in test [3], -60.5%; in test [4], -35.3%; in test [5], -72.3%.

Regarding `CCc1cccc(NC(=O)Cn2c(=O)oc3cc(S(=O)(=O)N4CCCCC4)ccc32)c1`, the activity change, negative = inhibition in test [1] was 0.196%; in test [2], 0.482%; in test [3], 6.95%; in test [4], 1.67%; in test [5], -31%.

As to `CC(C)C(=O)N1CCC2(CC1)OC(=O)N(Cc1ccccc1C#N)C2(C)c1ccccc1` (stereo not given), the activity change, negative = inhibition was -7.55% in test [1]; -11.2% in test [2]; -22.9% in test [3]; -21.1% in test [4]; -10.3% in test [5].

In the case of `O=C(CSc1nc2c(c(=O)n1-c1ccccc1)SCC2)Nc1ccc(-c2ccccc2)cn1`, the activity change, negative = inhibition is -16.7% in test [1]; -9.92% in test [2]; -4.04% in test [3]; -27.4% in test [4]; -8.46% in test [5].

On to `CCCOc1ccc(CN2C(=O)c3cc4occc4n3CC2(C)C(=O)NC2CCC(C)CC2)cc1` (stereo not given), for which the activity change, negative = inhibition is -4.11% in test [1]; 0.391% in test [2]; -5.83% in test [3]; -4.61% in test [4]; -0.711% in test [5].

For `COc1cccc(OC)c1OCCNCC1CSc2ccccc2O1` (stereo not given), the activity change, negative = inhibition in test [1] was -2.86%; in test [2], 4.49%; in test [3], -2.84%; in test [4], -9.7%; in test [5], -1.49%.

For `Fc1ccc(C2Nc3c(Cl)cccc3C3C=CCC32)cc1` (stereo not given), the activity change, negative = inhibition was -8.07% in test [1]; 2.08% in test [2]; -3.84% in test [3]; -9.05% in test [4]; -5.61% in test [5].

As for `COc1ccc(NC(=O)Cn2c(=O)oc3cc(S(=O)(=O)N4CCCC4)ccc32)c(OC)c1`, the activity change, negative = inhibition turned out to be 11.9% in test [1]; 2.34% in test [2]; 12.3% in test [3]; 7.58% in test [4]; 7.26% in test [5].

As to `COc1ccc(C2Sc3ccccc3N(CCN(C)C)C(=O)C2OC(C)=O)cc1` (stereo not given), the results for the activity change, negative = inhibition in test [1] and in test [3] were -5.78% and 7.74%, respectively.

As for `O=c1[nH]c2ccc(S(=O)(=O)Nc3ccc(F)c(F)c3)cc2[nH]1`, the activity change, negative = inhibition is 2.54% in test [1]; 0% in test [2]; -3.27% in test [3]; -2.72% in test [4]; -10.4% in test [5].

Regarding `COc1ccc([C@H]2C[C@@H](O)[C@@H](O)[C@@H]2NC(=O)c2ccccn2)cc1`, the activity change, negative = inhibition in test [1] is -3.6%; in test [2] it was 1.61%; in test [3], 2.31%; in test [4], -1.69%; in test [5], 17.9%.

For the molecule `CC(=O)Nc1c2n(c3ccccc13)CC(C)(C(=O)NC1CCCC1)N(Cc1ccc(Cl)cc1)C2=O` (stereo not given), the activity change, negative = inhibition in test [1] is -12.9%; in test [2] it was -0.223%; in test [3], -2.6%; in test [4], -5.54%; in test [5] it was -0.525%.

For `CCCN1C(=O)c2cc(C(=O)NCc3cccc(OC)c3)nn2CC1(C)C(=O)NC1CCCC1` (stereo not given), the activity change, negative = inhibition in test [1] was -2.63%; in test [2], -0.127%; in test [3], -2.78%; in test [4], -4.58%; in test [5] it was -3.65%.

Take `CC1OC(O[C@H]2[C@@H](O)C[C@@]3(C)C([C@H](O)C[C@]4(C)C3CC=C3C5CC(C)(C)CC[C@]5(C(=O)OC5OC(CO)C(O)C(O)C5OC5OCC(OC6OCC(OC7OCC(O)C(O)C7O)C(O)C6O)C(OC6OCC(O)(CO)C6O)C5O)CC[C@]34C)[C@]2(C)CO)C(O)C(O)C1O` (stereo not given in full): the activity change, negative = inhibition in test [1] is 0.962%; in test [2], 9.52%; in test [3], 12.1%; in test [4], -4.38%; in test [5], 8.35%.

Source of the values: PubChem BioAssay AID1745853 (National Center for Advancing Translational Sciences (NCATS), 2022).
